Measurements published in article PMC4336329 (PLoS ONE, 2015).
About 2,200 (0.71%) of roughly 310,000 compounds showed an effect of 50% or more. The effect is printed as a negative number. Some of the results follow.

Target: human ether-à-go-go-related gene (hERG) potassium channel (human, UniProt Q12809)
Experiment: primary screen, population patch clamp on CHO cells stably expressing hERG

Chain of human ether-à-go-go-related gene (hERG) potassium channel (Q12809 whole entry, looked up): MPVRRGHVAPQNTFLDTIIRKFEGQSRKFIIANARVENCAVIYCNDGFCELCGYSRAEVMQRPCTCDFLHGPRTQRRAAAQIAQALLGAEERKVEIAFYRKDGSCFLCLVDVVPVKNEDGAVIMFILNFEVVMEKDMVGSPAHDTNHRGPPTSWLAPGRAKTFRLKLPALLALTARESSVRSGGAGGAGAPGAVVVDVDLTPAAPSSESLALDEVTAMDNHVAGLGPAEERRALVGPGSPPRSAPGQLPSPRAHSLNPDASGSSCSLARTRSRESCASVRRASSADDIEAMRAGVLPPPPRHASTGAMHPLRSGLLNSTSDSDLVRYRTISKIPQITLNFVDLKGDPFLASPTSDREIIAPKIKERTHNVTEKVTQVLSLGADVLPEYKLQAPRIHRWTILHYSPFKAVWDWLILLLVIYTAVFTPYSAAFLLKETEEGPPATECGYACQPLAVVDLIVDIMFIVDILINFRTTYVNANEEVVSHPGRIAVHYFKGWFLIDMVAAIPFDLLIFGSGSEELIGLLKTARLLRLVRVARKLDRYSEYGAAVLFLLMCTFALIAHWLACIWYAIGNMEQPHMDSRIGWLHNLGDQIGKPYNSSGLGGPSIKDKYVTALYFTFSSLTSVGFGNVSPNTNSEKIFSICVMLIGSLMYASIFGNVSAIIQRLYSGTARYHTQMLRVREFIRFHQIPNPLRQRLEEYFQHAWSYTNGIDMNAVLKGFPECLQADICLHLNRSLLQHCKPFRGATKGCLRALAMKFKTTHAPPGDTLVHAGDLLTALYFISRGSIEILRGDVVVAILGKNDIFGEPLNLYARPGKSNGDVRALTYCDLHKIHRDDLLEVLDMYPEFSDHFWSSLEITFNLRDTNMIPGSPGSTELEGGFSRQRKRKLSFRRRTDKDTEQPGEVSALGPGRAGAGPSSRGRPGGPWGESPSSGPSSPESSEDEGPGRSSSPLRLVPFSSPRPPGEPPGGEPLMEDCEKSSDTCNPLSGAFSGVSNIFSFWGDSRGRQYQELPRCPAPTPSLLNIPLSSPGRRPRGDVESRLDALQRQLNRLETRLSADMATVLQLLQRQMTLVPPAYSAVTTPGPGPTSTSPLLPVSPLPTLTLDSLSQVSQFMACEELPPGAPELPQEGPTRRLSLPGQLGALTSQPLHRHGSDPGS

Structure (SMILES) | hERG current change (%, negative = inhibition) at 1uM [%]
COc1cccc(C(=O)O[C@H]2[C@H](C)NS(=O)(=O)[C@H]3C[C@@H]4C=C[C@]23O4)c1 | 17.9
CCOC(=O)c1cnn(-c2ccc(NS(=O)(=O)c3ccc(Cl)cc3)cc2)c1C(F)(F)F | 8.18
O=C(CS(=O)(=O)c1ccc(Cl)cc1)NCc1ccccc1 | 13.6
COc1cccc(C(=O)N(Cc2cc3cc(C)ccc3[nH]c2=O)CC2CCCO2)c1 (stereo not drawn) | 4.75
O=C(NN1CCOCC1)c1ccc(F)cc1 | 2.68
Cc1nc2ccccn2c1C(=O)NC1CCCc2ccccc21 (stereo not drawn) | -2.74
CCCS(=O)(=O)c1nc(S(=O)(=O)c2ccc(C)cc2)c(NCc2ccc3c(c2)OCO3)s1 | 13.2
CC(C)Cc1nc(N2CCN(C(=O)c3ccco3)CC2)c(C#N)c2c1CCCC2 | 5.31
COc1ccc(NC(=O)CN(c2ccc([N+](=O)[O-])cc2)S(=O)(=O)c2ccccc2)c(OC)c1 | 6.08
Cc1[nH]c2c(C)cccc2c1CCNS(=O)(=O)c1cccc([N+](=O)[O-])c1 | 9.73
CC(C)(C)Cc1nnc(NC(=O)CCc2ccccc2)s1 | 8.6
COc1ccc(C(C(=O)NC(C)(C)C)N(C(=O)CCC(=O)Nc2ccccn2)C2CCCCC2)cc1 (stereo not drawn) | 2.87
CCN(CC(=O)Nc1ccc2c(c1)OCO2)Cc1nc2ccccc2c(=O)[nH]1 | -1.67
O=C(O)CSc1nc2ccc(C(=O)c3ccccc3)cc2[nH]1 | 17.1
O=C(c1ccc(Cl)cc1)N1CCC(O)(CSc2ccc(Cl)cc2Cl)CC1 | 9.88
CCCc1nc2ccc(NC(=O)c3cccs3)cc2c(=O)n1Cc1ccc(Cl)cc1 | 0.572
COC(=O)c1ccc(N2C(=O)C3C4C=CC(CC4)C3C2=O)cc1 (stereo not drawn) | 16.7
O=C(NCc1ccco1)C(=S)N1CCCCC1 | 7.66
CN(C)CCO[C@@H](c1ccc(Cl)cc1)c1ccccn1.O=C(O)/C=C\C(=O)O | 7.74

Structure (SMILES) | hERG current change (%, negative = inhibition) at 1uM [%]
O=C(Cc1cccs1)N/N=C/C=C\c1ccco1 | 11.8
O=C(NCc1ccccc1Cl)c1cccc(OC2CCN(C(=O)C3CC3)CC2)c1 | 5.54
O=c1c2ccccc2ncn1Cc1cccc2ccccc12 | 5.31
Cc1ccc(S(=O)(=O)NCC(=O)NCC(=O)OCC(=O)NC(=O)NC(C)(C)C)cc1C | 15.9
O=C(COC(=O)Cn1[nH]c(=O)c2ccccc2c1=O)Nc1ccc2c(c1)OCO2 | 5.51
Cc1ccccc1NC(=O)CCCN1C(=O)C2CC=CCC2C1=O (stereo not drawn) | 14.5
O=S(=O)(c1ccccc1)c1ncc(C(F)(F)F)cc1O | 1.56
CN(C)CCC(=O)c1cccc(Br)c1.Cl | 18.6
Nc1c2c(nc3ccn(-c4ccccc4)c(=O)c13)CCCCC2 | -37.1
Cc1ccc(-c2cc(C(=O)NCc3cccnc3)no2)cc1 | 12.1
CCOC(=O)c1csc(NC(=O)C(C)(C)C)n1 | 11
CC1Cc2ccccc2N1S(=O)(=O)c1c(N)n(C)c(=O)n(C)c1=O (stereo not drawn) | 3.9
C=CCOC(=O)C1=C(C)Nc2nnnn2C1c1cc(OC)ccc1OC (stereo not drawn) | 8.87
CC(=O)/C=C/c1ccc(C)o1 | 3.67
COc1ccc(CCNC(=O)CCOc2cc(C)ccc2C)cc1OC | 3.03
COc1ccc(CN2CCNCC2)cc1.Cl | 14
CN1CC(=O)Nc2ccccc2C1=O | 19.9
O=C1CC(C(=O)Nc2ccc(Cl)cc2)S/C(=N\N=C\c2ccco2)N1 (stereo not drawn) | 12.4
CCOC(=O)C1C2C=CC3(CN(C4CCCC4)C(=O)C13)O2 (stereo not drawn) | 7.17

Structure (SMILES) | hERG current change (%, negative = inhibition) at 1uM [%]
O=C(NCc1ccccc1)N1CCOc2ccccc21 | 13
O=C(CSc1nc(-c2ccccc2)nc2ccc(F)cc12)Nc1cccc(C(=O)O)c1 | 6.58
O=S(=O)(c1ccc(Oc2ncnc3scc(-c4ccccc4)c23)cc1)N1CCOCC1 | 11
Cc1c(Cl)cccc1NC(=O)CN1CCC(NC(=O)C2CCCCC2)CC1 | 8.26
CN1C(c2ccccc2)CCOS1(=O)=O (stereo not drawn) | 9.76
CCOc1ccc(N2CC(C(=O)NCCN3C(=O)S/C(=C\c4ccc(OC)c(OC)c4)C3=O)CC2=O)cc1 (stereo not drawn) | -7.01
CCN(CC)c1ccc(S(=O)(=O)N2CCOCC2)cc1NC(=O)c1cc(=O)c2ccccc2o1 | 11.3
Cc1onc(-c2ccccc2)c1C(=O)Nc1ccc2c(C)cc(=O)oc2c1 | 2.13
Cc1ccc(NC(=O)C2CCCN2C(=O)Oc2ccccc2)cc1 (stereo not drawn) | 0.401
CC(=O)c1ccc(NC(=O)c2ccc3snnc3c2)cc1 | 6.06
CSc1nc2ccc(Cl)cc2[nH]1 | 4.95
Cc1cc(NC(=O)CCC(=O)N(CC(=O)NC2CCCC2)c2ccc(F)c(Cl)c2)no1 | 15.4
CSc1nc(C)cc(SC(C(C)=O)C(=O)Nc2ccccc2)n1 (stereo not drawn) | 13.3
COCCN(C(=O)c1ccccc1)c1nnc(-c2cccnc2)s1 | 10.5
O=C(NCc1ccccc1)c1ccc2c(c1)S(=O)(=O)c1cc(Cl)ccc1C2=O | 0.584
COc1cccc(CN2CC(C(=O)N3CCN(C(C)C)CC3)CCC2=O)c1 (stereo not drawn) | 9.91
C=CCSc1nnc(CCCCCN2C(=O)c3cccc4cccc(c34)C2=O)o1 | 1.07
O=C1CC(c2ccccc2)Cc2nc(NC3CC3)ncc21 (stereo not drawn) | -2.48
COc1ccccc1CNC(=O)c1oc2ccc(S(=O)(=O)N3CCOCC3)cc2c1C | -7.46
